{"sequences": {"note": "Chains of the proteins cited; added tags and fusions are not shown. Residues count along the entry.", "UniProt P22366": "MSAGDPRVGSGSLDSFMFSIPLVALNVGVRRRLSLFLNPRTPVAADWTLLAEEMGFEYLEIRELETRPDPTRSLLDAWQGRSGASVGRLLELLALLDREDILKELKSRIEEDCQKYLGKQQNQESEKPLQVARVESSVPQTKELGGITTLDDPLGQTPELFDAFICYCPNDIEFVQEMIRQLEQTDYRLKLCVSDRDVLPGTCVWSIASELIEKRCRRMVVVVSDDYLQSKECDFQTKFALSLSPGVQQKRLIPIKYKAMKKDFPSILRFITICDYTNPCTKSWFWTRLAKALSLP", "UniProt Q9QUK6, residues 26-835": "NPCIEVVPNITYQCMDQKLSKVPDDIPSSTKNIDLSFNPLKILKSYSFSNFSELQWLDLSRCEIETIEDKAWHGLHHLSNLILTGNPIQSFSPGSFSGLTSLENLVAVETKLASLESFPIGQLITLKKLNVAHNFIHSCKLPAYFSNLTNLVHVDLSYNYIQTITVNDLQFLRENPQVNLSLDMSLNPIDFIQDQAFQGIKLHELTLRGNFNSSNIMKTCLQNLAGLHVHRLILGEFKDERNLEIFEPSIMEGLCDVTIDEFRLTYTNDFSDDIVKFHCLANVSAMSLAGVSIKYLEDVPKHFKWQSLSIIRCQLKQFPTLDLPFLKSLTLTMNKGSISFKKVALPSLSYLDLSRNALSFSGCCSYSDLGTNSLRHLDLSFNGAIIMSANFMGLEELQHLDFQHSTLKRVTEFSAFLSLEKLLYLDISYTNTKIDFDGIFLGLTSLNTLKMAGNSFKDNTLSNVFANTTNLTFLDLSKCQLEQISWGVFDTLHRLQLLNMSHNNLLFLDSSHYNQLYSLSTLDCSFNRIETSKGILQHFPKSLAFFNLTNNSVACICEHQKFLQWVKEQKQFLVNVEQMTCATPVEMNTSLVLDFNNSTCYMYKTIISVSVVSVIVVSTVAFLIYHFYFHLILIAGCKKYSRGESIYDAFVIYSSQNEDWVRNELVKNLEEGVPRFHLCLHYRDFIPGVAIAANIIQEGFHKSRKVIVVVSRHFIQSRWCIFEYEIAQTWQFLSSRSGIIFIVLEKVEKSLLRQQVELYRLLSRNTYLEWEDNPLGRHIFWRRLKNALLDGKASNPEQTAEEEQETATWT", "UniProt Q99JY1": "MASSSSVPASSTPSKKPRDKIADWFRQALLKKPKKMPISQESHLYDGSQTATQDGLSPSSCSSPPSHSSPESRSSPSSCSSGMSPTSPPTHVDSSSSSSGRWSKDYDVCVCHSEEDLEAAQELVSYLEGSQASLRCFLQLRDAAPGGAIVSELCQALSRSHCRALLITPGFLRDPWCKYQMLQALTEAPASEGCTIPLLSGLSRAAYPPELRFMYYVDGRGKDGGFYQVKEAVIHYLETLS"}, "source": "paper PMC6192633", "key": {"[1]": {"molecular_target": "Flag-tagged MyD88 (mouse) (UniProt P22366)", "assay": "co-IP; HEK293 cells co-transfected with Flag-MyD88 and HA-GPR108 together with HA-TLR4; anti-flag M2 beads; blots with anti-Flag and anti-HA"}, "[2]": {"molecular_target": "T1, Flag-tagged TLR3 (mouse) (UniProt Q99MB1)", "T1 sequence": "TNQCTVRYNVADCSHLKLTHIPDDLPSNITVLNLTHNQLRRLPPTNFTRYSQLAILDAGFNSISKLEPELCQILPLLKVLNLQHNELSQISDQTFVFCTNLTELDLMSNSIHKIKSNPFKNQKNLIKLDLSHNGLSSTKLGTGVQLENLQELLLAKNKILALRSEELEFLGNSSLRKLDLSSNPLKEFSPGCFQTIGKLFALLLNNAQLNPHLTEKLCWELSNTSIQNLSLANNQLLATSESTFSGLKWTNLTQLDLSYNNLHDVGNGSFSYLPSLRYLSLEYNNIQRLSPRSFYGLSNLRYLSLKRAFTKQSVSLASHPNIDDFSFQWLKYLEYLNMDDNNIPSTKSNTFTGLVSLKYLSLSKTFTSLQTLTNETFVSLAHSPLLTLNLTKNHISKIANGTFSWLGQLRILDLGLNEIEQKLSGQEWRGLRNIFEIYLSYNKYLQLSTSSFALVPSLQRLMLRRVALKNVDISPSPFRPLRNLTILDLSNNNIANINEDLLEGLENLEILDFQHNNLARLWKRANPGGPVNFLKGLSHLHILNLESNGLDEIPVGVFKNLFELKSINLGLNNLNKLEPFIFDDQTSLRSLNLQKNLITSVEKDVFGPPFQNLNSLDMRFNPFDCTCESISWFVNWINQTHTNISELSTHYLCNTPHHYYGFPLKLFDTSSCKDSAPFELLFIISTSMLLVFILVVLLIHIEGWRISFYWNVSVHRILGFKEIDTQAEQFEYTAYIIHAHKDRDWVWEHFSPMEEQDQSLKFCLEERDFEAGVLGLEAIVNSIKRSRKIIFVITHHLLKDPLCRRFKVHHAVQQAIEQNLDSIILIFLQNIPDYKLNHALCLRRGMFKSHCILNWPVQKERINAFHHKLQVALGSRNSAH", "assay": "co-IP; HEK293 or HEK293T cells co-transfected with Flag- and HA-tagged proteins; lysis buffer 10 mM Tris pH 7.4, 100 mM NaCl, 1 mM EDTA, 1 mM EGTA, 1% Triton X-100, 10% glycerol, 0.1% SDS, 0.5% deoxycholate; anti-flag M2 agarose 2 h at 4°C; blots with anti-HA and anti-Flag (Fig 6A: cells stimulated with LPS for different times, with or without GPR108, blot with anti-MyD88)"}, "[3]": {"molecular_target": "T2, Flag-tagged TLR7 (mouse) (UniProt P58681)", "T2 sequence": "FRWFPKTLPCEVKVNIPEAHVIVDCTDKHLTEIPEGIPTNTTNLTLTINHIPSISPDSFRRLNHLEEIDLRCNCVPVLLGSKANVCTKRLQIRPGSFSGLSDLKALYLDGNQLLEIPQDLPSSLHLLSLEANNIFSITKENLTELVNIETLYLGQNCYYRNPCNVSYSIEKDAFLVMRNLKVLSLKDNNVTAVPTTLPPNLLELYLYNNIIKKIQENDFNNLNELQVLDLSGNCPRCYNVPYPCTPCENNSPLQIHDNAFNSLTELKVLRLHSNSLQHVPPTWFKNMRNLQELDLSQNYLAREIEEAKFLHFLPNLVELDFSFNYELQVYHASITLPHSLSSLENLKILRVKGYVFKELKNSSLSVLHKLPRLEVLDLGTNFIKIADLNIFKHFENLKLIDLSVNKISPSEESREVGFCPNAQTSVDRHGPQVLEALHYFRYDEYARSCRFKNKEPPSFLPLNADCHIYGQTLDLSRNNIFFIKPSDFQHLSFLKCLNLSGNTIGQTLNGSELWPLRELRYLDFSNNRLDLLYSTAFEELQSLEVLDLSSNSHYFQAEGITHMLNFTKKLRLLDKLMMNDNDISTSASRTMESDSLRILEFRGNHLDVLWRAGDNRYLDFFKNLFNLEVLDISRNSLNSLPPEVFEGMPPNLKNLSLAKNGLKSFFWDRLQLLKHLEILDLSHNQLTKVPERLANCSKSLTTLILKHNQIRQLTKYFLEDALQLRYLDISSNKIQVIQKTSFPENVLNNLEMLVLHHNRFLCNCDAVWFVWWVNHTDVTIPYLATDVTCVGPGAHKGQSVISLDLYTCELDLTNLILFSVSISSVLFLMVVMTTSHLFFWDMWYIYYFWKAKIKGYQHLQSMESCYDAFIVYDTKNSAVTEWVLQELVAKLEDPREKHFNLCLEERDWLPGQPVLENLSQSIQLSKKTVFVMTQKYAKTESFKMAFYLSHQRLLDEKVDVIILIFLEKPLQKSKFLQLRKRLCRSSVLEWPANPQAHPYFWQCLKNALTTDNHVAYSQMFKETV", "assay": "co-IP; HEK293 or HEK293T cells co-transfected with Flag- and HA-tagged proteins; lysis buffer 10 mM Tris pH 7.4, 100 mM NaCl, 1 mM EDTA, 1 mM EGTA, 1% Triton X-100, 10% glycerol, 0.1% SDS, 0.5% deoxycholate; anti-flag M2 agarose 2 h at 4°C; blots with anti-HA and anti-Flag (Fig 6A: cells stimulated with LPS for different times, with or without GPR108, blot with anti-MyD88)"}, "[4]": {"molecular_target": "Flag-tagged MyD88 (mouse) (UniProt P22366)", "assay": "co-IP; HEK293 or HEK293T cells co-transfected with Flag- and HA-tagged proteins; lysis buffer 10 mM Tris pH 7.4, 100 mM NaCl, 1 mM EDTA, 1 mM EGTA, 1% Triton X-100, 10% glycerol, 0.1% SDS, 0.5% deoxycholate; anti-flag M2 agarose 2 h at 4°C; blots with anti-HA and anti-Flag (Fig 6A: cells stimulated with LPS for different times, with or without GPR108, blot with anti-MyD88)"}, "[5]": {"molecular_target": "Flag-tagged TLR4 (mouse) (UniProt Q9QUK6)", "assay": "co-IP; HEK293 or HEK293T cells co-transfected with Flag- and HA-tagged proteins; lysis buffer 10 mM Tris pH 7.4, 100 mM NaCl, 1 mM EDTA, 1 mM EGTA, 1% Triton X-100, 10% glycerol, 0.1% SDS, 0.5% deoxycholate; anti-flag M2 agarose 2 h at 4°C; blots with anti-HA and anti-Flag (Fig 6A: cells stimulated with LPS for different times, with or without GPR108, blot with anti-MyD88)"}, "[6]": {"molecular_target": "Flag-tagged TIRAP (mouse) (UniProt Q99JY1)", "assay": "co-IP; HEK293 or HEK293T cells co-transfected with Flag- and HA-tagged proteins; lysis buffer 10 mM Tris pH 7.4, 100 mM NaCl, 1 mM EDTA, 1 mM EGTA, 1% Triton X-100, 10% glycerol, 0.1% SDS, 0.5% deoxycholate; anti-flag M2 agarose 2 h at 4°C; blots with anti-HA and anti-Flag (Fig 6A: cells stimulated with LPS for different times, with or without GPR108, blot with anti-MyD88)"}}, "note": "No constants are given. Whether binding was seen depends on the method and setting. Binding seen in cells or lysates may run through a third protein. Some results given as binding are weak or reduced against the parent protein; the word gives no strength. Where a sequence is shown, tags or fusion partners need not be part of it."}
{"binder": "HA-tagged GPR108 (protein, UniProt Q91WD0 35-569) RIHRLTLTGEKRADIQLNSFGFYTNGSLEVELSLLRLSLQETEKKLPKVGFSLSRVRSGSVRSYSRRNSHECPLDRNSSNFLVLFLINIKDLQVQVRKYGEQKLFISPGLLPEAPTQSGPPKPDPAGTPKDNHVIHPSPTEMSAVKENQTAPQVSGDKTTPGEHRHSSERQPPTQDPSGKEKDQVLGLGHLNDSYNFSFHIVISSRAEEGQYSLNFHNCHNSIPGQEQPFDLTVMIREKNPEGFLSAAEIPLFKLYLIMSACFLAADIFWVSVLCKNTYSVFKIHWLMAALAFTKSVSLLFHSINYYFINSQGHPIEGLAVMHYITHLLKGALLFITIALIGSGWAFVKYMLSDKEKKIFGIVIPLQVLANVAYIVIESREEGASDYGLWKEILFLVDLICCGAILFPVVWSIRHLQDASGTDGKVAVNLARLKLFRHYYVMVICYIYFTRIIAILLQVAVPFQWQWLYQLLVESSTLAFFVLTGYKFQPAGDNPYLQLPQEDEEDVQMEQVMTDSGFREGLSKVNKTASGRELL", "values": [{"measurement": "binding", "setting": "[1]", "value": "binds"}, {"measurement": "binding", "setting": "[2]", "value": "binds"}, {"measurement": "binding", "setting": "[3]", "value": "binds"}, {"measurement": "binding", "setting": "[4]", "value": "binds weakly"}, {"measurement": "binding", "setting": "[5]", "value": "binds"}, {"measurement": "binding", "setting": "[6]", "value": "binds weakly"}]}
